# Some of the results follow.
# System: PfAP2-HC AP2 domain (GST-tagged)
# Experiment: gcPBM binding intensity (ln(normalized median fluorescence intensity)); higher = stronger DNA binding
# In short: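 GST-tagged P. falciparum DNA-binding domains, expressed in E. coli (about 25 μg on average), were applied for 1 h to an Agilent 4 × 180k array of primer-extended double-stranded 36-bp intergenic genomic probes plus negative controls. The binding buffer was 1× PBS with 1% milk, 0.2 mg/ml BSA, 0.5% salmon testes DNA and 0.03% Triton X-100. Bound protein was detected with Alexa488 anti-GST antibody and scanned at 488 nm. Binding intensity is the highest Masliner-normalised natural-log median intensity across replicate spots of either probe orientation.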
row,Sequence,gcPBM binding intensity (ln)
1,TTGTATGCTTCCCGACTACATTATGCCATAAATGTA [TGCATGCA_negctrl_site136],9.54
2,TAAACATTTTTAATTTTGTAAAATTTTAAATAAAAA [XGTACX_negctrl_site612],9.27
3,TTTTTTATTGTGAAACTGATATTATATTTTTTATAA [GTGCAC_negctrl_site559],9.55
4,ACAAACAAAGAAAGAACACACATACACAAGATACCT [CACACA_site7353],10.2
5,TGAATATTTTATGATTGTACATATTATAATAAACAT [XGTACX_site6113],9.53
6,AAAACAAACATTACACGTACAAAACAAGTTATAGAC [XGTACX_site6320],10.6
7,TTTTTGATATTAAAGGGTACATTATTTACAAAAAAA [XGTACX_site5284],9.23
8,ATGCTTTTTTATAAAAGTACATAAAGTTTTTACACT [XGTACX_site7307],9.43
9,CTGCCTTCCATACCCACACACTTCCCATATATTTTA [CACACA_site5491],10.3
10,ATTCTTTTATTTAGTAGTACATTTGTATTTTATTCA [XGTACX_site5790],9.75
11,GATCCTGGTTCTTGTGGTACTTGTTCATTTGTTATA [XGTACX_site7164],9.89
12,TTATTTTCTTTTTCTTGTACACACATAATATGGATG [XGTACX_site1481],10.3
13,TTGTTAATAAAAATATTGGAAAGTTTATAAAATTTT [CACACA_negctrl_site1487],9.33
14,ATAATATATATACAAACACACAATTGCGTCCACATT [CACACA_site8515],10.2
15,AAAAAGAAGAATAATACACACAAATTATTTTATATA [CACACA_site1919],10
16,TATTCCAAAAATGTGTGTACATAAATACAATATTAT [XGTACX_site2653],9.85
17,TATAATAAATGGACGGTGCGACATGACCATATGTGT [GTGCAC_site9476],9.85
18,AATAAAAAAAAAAAAAAAAAAAAAAAGACACTAAAA [CACACA_negctrl_site1075],9.53
19,CTAAAAGAACATGTGTGTACTTATGTTCTCTTTTTT [XGTACX_site5983],9.71
20,GACACCCATAAATATACACACGCACAACACAAAATA [CACACA_site8944],9.98
21,TTATTTTTTAGTAGTACACACTTTTTGTACCTTTTA [CACACA_site4503],9.87
22,CTTACCAAAAAACACACACACACAAAATATATAAAT [CACACA_site1870],11.2

row,Sequence,gcPBM binding intensity (ln)
1,TGTAGATTTTGTAACACACACATATAAATACAGATA [CACACA_site5343],10.2
2,TAAGGGATATGTATATGTACATACAAATATATATAA [XGTACX_site2892],9.62
3,TTTGCTTCGATATATTCACACATTTTTTTTCTTATT [CACACA_site4499],9.96
4,AAATGTAATAAATATACACACACAAATATATATATA [CACACA_site8754],10.3
5,AATTTCATTTTTAGAAGTACATTTATATTAAAAATC [XGTACX_site2888],9.22
6,CATTGACCATTAATTTGTACACAAGGGGAAATGAGG [XGTACX_site1756],9.58
7,TATATATATATATATATATATATATATATATATATT [CACACA_negctrl_site1440],9.39
8,TCTTTCTGCTCTTATACACACAAATAAAGATTTTTT [CACACA_site2700],9.85
9,ATGAAATTTTCATATTGTACTATTAAAAATATATTT [XGTACX_site1989],9.41
10,AATAAATATTAAATGACAAAAAAAAAAAAAAAAGGG [XGTACX_negctrl_site15],9.92
11,TATAATCCATAAGAAGCACACACATATATATATATT [CACACA_site8394],10.4
12,TTAAGATGCATAAATACATGCAAAGTAAATAATTCT [TGCATGCA_site517],9.79
13,TTAGCAGGACGTTTGGTGCACGTACTGTTTTTCTTT [GTGCAC_site9856],9.53
14,ATTATAAGAATTAAAAGAAACAAAATTTTAATTATA [CACACA_negctrl_site610],9.49
15,TAAGATCCTTAAAACGCATGCAGTATTTTTATTTCT [TGCATGCA_site532],9.59
16,TAGCCAAAAGGATATGCACACACACCCACATATATA [CACACA_site8684],10.1
17,CATATAATTATTTTCACACATATAACTACATCTATA [CACACA_site5915],9.74
18,CTTTTACGTTTAGGATGTACATTTAAAAAAAAAGAA [XGTACX_site8032],9.43
19,ATATAAATAAAAAAAAGTACATAATATATAAAAATA [XGTACX_site3065],9.8
20,TTTCTTAAAATATAAAGTACTAAAATGAAAATATAT [XGTACX_site2173],9.38
21,AAATAAAGAAATATATGTACATATATATATATATAT [XGTACX_site5131],10.4
22,AAAAAAAAAAAAAACACACACACACGCAGATATATA [CACACA_site6672],10.5

row,Sequence,gcPBM binding intensity (ln)
1,TTTATTCTCCACACCCGTACACATTTTTTTTGCATA [XGTACX_site5615],9.93
2,ATTATAGACAACTCTTTTTCTAAACTATTTTATTTT [CACACA_negctrl_site1754],9.98
3,CATAATATTTGTGAAAGTACTTATTTTACAATAGGG [XGTACX_site5004],9.55
4,TTTTCTATAAGATTTGCACACAACTTATTCTATTAA [CACACA_site3752],9.94
5,ATAAATAAATAAATAAATATATATATGAAATAATGT [TGCATGCA_negctrl_site12],9.83
6,CTTCTTTTGTGATAAAGTACAAATATTTTGAAATAT [XGTACX_site1156],9.38
7,AAAAAATATAAAACGAGTACATATATAATAAGCAAA [XGTACX_site1360],9.84
8,ATTTCTTTTACATTTACATGCAATGCTCTATAGATA [TGCATGCA_site62],9.74
9,AAAGAATTTGCATATACACACAAAAAAATAAATACA [CACACA_site4373],10.1
10,ATTTTTTTTATGTATTATGCTTTTATATCCTTCATA [CACACA_negctrl_site1244],9.78
11,AATATAATATAATGCACACATAAAAAAAAAAAAATC [CACACA_site1303],9.98
12,GCTAAACAATAGTTTGCACACAATTTAAATATATAT [CACACA_site193],10
13,AATGCACTATTTAAAAGTACACATAAGAAAAGCATA [XGTACX_site1739],9.62
14,AGTATAAATATATTATGTACATATATATTATACTTA [XGTACX_site2623],9.53
15,TTATATACATTAAATGAACACACATAAATAAATTAC [CACACA_site8927],9.88
16,ATATATATATACATATGTACATATATATTTATACAT [XGTACX_site2463],9.81
17,AATACAATTTATAACACACACACAAGAATACCTATA [CACACA_site6705],11.1
18,TCTTTTTAAGGGATTTTTTTTTTTTTTTTAAAAAGA [CACACA_negctrl_site1274],9
19,TTTGTATCTATATATTGTACGAATTACTTTCATTTA [XGTACX_site4785],9.9
20,TATACATACATTAGACGTACACATTTTACCTACACC [XGTACX_site3586],9.87
21,TTTTTTGTATTTTTCACACACACATAAGTAAACAAT [CACACA_site1900],10.2
22,TATTATGTATGTATATGTACGTATCTTATTTTATTT [XGTACX_site5008],9.94

row,Sequence,gcPBM binding intensity (ln)
1,AAATTATTATATATATGTACGTATAATGTATTTTGT [XGTACX_site2903],9.8
2,AAATATAGAATACATGTGCACATAATATATATATAT,10
3,AAATGTAAATTTATCCGTACATATATATATTTATAT [XGTACX_site7024],9.73
4,AAAAAAAAAAAAATATATATATATATATATATATAT [GTGCAC_negctrl_site212],9.44
5,AAAAAAAAAAATTAAAGTACAAAAATATTAAAAATA [XGTACX_site6517],9.62
6,TGCATTTATATCTTCACACATATATATATATATATA [CACACA_site4516],9.66
7,ATTAAAAATTCAATTGCACACGCACATATTTTAATA [CACACA_site8618],9.95
8,ATGTAATAAAATAATTGTACAATGTAACTAATTTTT [XGTACX_site2871],9.92
9,ATATGTATATATACATGTACATATTTTTCCTTTCTT [XGTACX_site149],9.65
10,ATAAACATGGAAATGTATTAAAAGCAAGTATATAAA [XGTACX_negctrl_site516],9.93
11,TGTTGTTACAGATATACACACATATATATATTATAT [CACACA_site5342],9.96
12,TTGGGTGCATATATTTGTACACATTATTTCTATTTT [XGTACX_site3688],9.69
13,TAAATTATAACGTGCACACATATTTAAAATGAAATG [CACACA_site2820],9.73
14,AAAAAAAATTTCTTCACACATAAATAAATAAATAAA [CACACA_site4841],9.36
15,TTTTTTTTTTTTTCAAGTACATATATATATATATAA [XGTACX_site2098],9.18
16,TTTTTATATGTTAAGTGTACGTTTACATTTTATACT [XGTACX_site3485],9.75
17,ACATAAATAAATTAATGTACATATATATTTGTATAT [XGTACX_site3160],9.68
18,TATATATATATATATACACACACACCCATATATATA [CACACA_site8812],10.3
19,TTTGTATAATACATGTGTACGTATTTTTATATAAAT [XGTACX_site8656],9.73
20,TTATCATTATATAGTTGTACATATTTATTTATAAAA [XGTACX_site2310],9.49
21,AGAACTAAAAGAACATGTACATAAATTCTAAATAAT [XGTACX_site4084],9.71
22,ATGATACTAAAAAATTGTACATATAACAAAAGGTAT [XGTACX_site2527],9.76

# — the supplement of paper PMC11417369
